Laboratory results as given in the supplement of paper PMC8748497.
The other results are listed elsewhere or left out.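 How the source made its calls: active = fold change of at least 2 over DMSO control; inactive = below 2-fold.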 Repeats are few or missing, and single values can be far off.

system: HEK293 ARE/NRF2-luciferase reporter; assay: ARE/NRF2 luciferase reporter activity, fold change over DMSO control; higher = stronger NRF2/ARE reporter activation; conditions: 10 µM; 24 h

Row | SMILES | ARE/NRF2 luciferase reporter activity
1 | O=C(O)c1cc(=O)c2c(OCC(O)COc3cccc4oc(C(=O)O)cc(=O)c34)cccc2o1 | inactive: 0.936
2 | C=C(C)[C@@H]1CC=C(C(=O)O)CC1 | inactive: 1.06
3 | CN1CC(O)c2cc(N=NC(N)=O)c(O)cc21 (centres undefined) | inactive: 0.951
4 | CCCSc1ccc2[nH]c(NC(=O)OC)nc2c1 | active: 2.39
5 | CCOC(=O)C1=C(C)NC(C)=C(C(=O)OC)C1c1cccc(Cl)c1Cl (centres undefined) | inactive: 1.01
6 | COC(=O)C1=C(C)NC(C)=C(C(=O)OCC(C)C)C1c1ccccc1[N+](=O)[O-] (centres undefined) | inactive: 0.134
7 | CN(C)CCC=C1c2ccccc2C=Cc2ccccc21 | inactive: 0.658
8 | CC1(C)OC(=O)C(OCC2CC2)=C1c1ccc(S(C)(=O)=O)cc1 | inactive: 1.04
9 | COc1cc(C/C=C/c2ccccc2)c(OC)cc1O | inactive: 1.56
